Experimental data published in PubChem BioAssay AID2546 (National Center for Advancing Translational Sciences (NCATS), 2010).
The whole screen tested about 310,000 compounds, of which about 11,000 (3.5%) were called active. Inconclusive means that the source gave no clear call. Such entries were picked first, then a sample of the others. Calls come from the whole dose curve; as a rule, active = well fitted inhibition curve with a large enough effect; inconclusive = small, poorly fitted or top-dose-only effect, or effect the other way; inactive = flat fitted curve, though single readings scatter. No potency is given beside an inconclusive call; the fits are too rough.

Assay: VP16 counterscreen qHTS for inhibitors of ROR gamma transcriptional activity;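 note: Gal4-VP16 expression switched on by copper sulfate through the metallothionein promoter; nearly all actives have a fitted effect of over 50% in size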
Settings: Drosophila S2 Gal4-VP16 UAS-luciferase, luminescence, 20 h; activity, negative = inhibition: at 53.6 µM (top of the series)
% is set by controls: 0 for no effect and ±100 for the full control effect; potency is the fitted concentration of half-maximal effect; tags give direction and shape of the fitted curve.

| SMILES | Potency | activity, negative = inhibition |
| --- | --- | --- |
| N#Cc1ccc(OCC(O)CN2CCN(c3ncc(C(F)(F)F)cc3Cl)CC2)cc1 (configuration not stated) | inactive |  |
| O=c1c(-c2ccco2)[n+]([O-])c2ccccc2n1OCc1ccccc1[N+](=O)[O-] | inactive |  |
| O=C(NCCc1ccc(Cl)cc1)c1ccc2c(c1)OCCO2 | inconclusive [inhibitor, single point] |  |
| COc1cccc(NC(=S)NN=C2CCCCCC2)c1 | inconclusive [inhibitor, single point] |  |
| CCOC(=O)c1cc(C(=O)Nc2cccc(C)c2)nn1C | inconclusive [inhibitor, single point] |  |
| O=C(Nc1ccc2c(c1)OCO2)C1CCCN(S(=O)(=O)c2cccs2)C1 (configuration not stated) | inactive |  |
| CN(CC1COc2ccccc2O1)C(=S)Nc1ccccc1F (configuration not stated) | inconclusive [activator, partial curve] |  |
| O=C(NC12CC3CC(CC(C3)C1)C2)N1CCN(c2nc(-c3ccccc3)cs2)CC1 | inconclusive [inhibitor, single point] |  |
| COc1cc(-c2nc3ccccn3c2/N=C/c2cccc(F)c2)ccc1O | inactive |  |
| CC1C(=O)N2CCCc3cc(S(=O)(=O)N4CCN(c5ccccc5F)CC4)cc1c32 (configuration not stated) | inconclusive [inhibitor, partial curve] |  |
| COc1ccc(N2CCN(C(=O)c3ccc4c(Cl)c5c(nc4c3)CCCC5)CC2)cc1 | inconclusive [activator, full curve, poor fit] |  |
| COc1ccc(-c2cc(-c3ccc(Cl)cc3)c(C#N)c(SCC(=O)O)n2)cc1 | inconclusive [inhibitor, partial curve] |  |
| CCOC(=O)c1ccc2c(c1)N(Cc1ccccc1C)C(=O)c1ccccc1S2=O (configuration not stated) | active: 22.4 µM |  |
| O=S(=O)(Nc1ncnc2sc3c(c12)CCC3)c1ccc2ccccc2c1 | inactive |  |
| C/C(CC(=O)Nc1cccc(Cl)c1)=N\NC(=O)Cc1ccc(Cl)cc1 | inconclusive [inhibitor, single point] |  |
| COc1cccc(C2=CC(c3ccc(OC)c(OC)c3)NC(=S)N2)c1 (configuration not stated) | inactive |  |
| CCN1CSC(=S)N(Cc2ccccc2)C1 | active: 10 µM |  |
| CC(C)CN(CC(C)C)S(=O)(=O)N1CCC(C(=O)NC2CCCCCCC2)CC1 | inactive |  |
| Cc1ccccc1-n1c(=O)cc(N2CCN(C(=O)c3ccco3)CC2)[nH]c1=O | inactive |  |
| Cc1cc(=O)oc2cc(OCC3CC(c4ccc(Br)cc4)=NO3)ccc12 (configuration not stated) | inconclusive [inhibitor, single point] |  |
| Cc1ccc2nc(N(CCCN(C)C)C(=O)c3cc(-c4cccs4)nc4ccccc34)sc2c1 | inconclusive [inhibitor, single point] |  |
| O=C(COC(=O)/C=C/c1ccccc1[N+](=O)[O-])NC1CCS(=O)(=O)C1 (configuration not stated) | inactive |  |
| C[C@H]1C(=O)N(S(=O)(=O)c2ccc([N+](=O)[O-])cc2)[C@H]1c1ccc(F)cc1 | inactive |  |
| Cc1ccc2nc(NCCO)nc(-c3ccccc3)c2c1 | inactive |  |
| O=C(CCCN1C(=O)CCC1=O)Nc1ccc(Cl)c(C(F)(F)F)c1 | inconclusive [inhibitor, single point] |  |
| CC(C)(C)c1ccc(NC(=O)Nc2ccc(F)cc2)cc1 | inactive |  |

| SMILES | Potency | activity, negative = inhibition |
| --- | --- | --- |
| Cc1ccc(S(=O)(=O)NCC23C=CC(O2)C2C(=O)N(c4ccccc4)C(=O)C23)cc1 (configuration not stated) | inconclusive [inhibitor, single point] |  |
| CC(C)Oc1cccc(C2NC(=O)c3ccccc3O2)c1 (configuration not stated) | inconclusive [activator, single point] |  |
| CC1(C(=O)NC(=S)N(CCC#N)Cc2cccnc2)CC1(Cl)Cl (configuration not stated) | inconclusive [inhibitor, single point] |  |
| O=C(CN1CCCCCC1)Nc1ccccc1F | inactive |  |
| S=c1[nH]c2ccccc2c2ccccc12 | active: 17.8 µM |  |
| Cc1ccc(C(=O)Nc2cccc(C(F)(F)F)c2)cc1Nc1ncnc2nc[nH]c12 | inactive |  |
| COC(=O)CCN(C(=O)C12CC3CC(CC(C3)C1)C2)c1ccccn1 | inactive |  |
| Cc1cccc(NC(=S)NNc2cccc(Cl)c2)c1 | inconclusive [inhibitor, single point] |  |
| Cc1ccc(NC(=O)COC(=O)C2(c3ccc(Cl)cc3)CCCC2)cc1 | inconclusive [activator, partial curve] |  |
| Cc1cccc2cc(C#N)c(N3CCC(O)CC3)nc12 |  | inactive: -1% [at 10 µM] |
| O=C(CC(=O)c1ccccc1)Nc1ccccc1C(F)(F)F | inconclusive [activator, single point] |  |
| O=C(NNC(=S)Nc1ccccc1C(F)(F)F)c1ccc(Br)o1 | inactive |  |
| Cc1cc2nnc(SC(C)C#N)n2c2ccccc12 (configuration not stated) | inconclusive [inhibitor, partial curve, poor fit] |  |
| O=C(NNC1=Nc2cccc3cccc1c23)c1ccc(Br)cc1 | active: 2 µM |  |
| S=C(NCCc1ccc(Cl)cc1)NC1CC1 | active: 8.91 µM |  |
| Cc1ccccc1C(=O)Nc1ccnn1C1CCN(C(C)Cc2ccccc2F)CC1 (configuration not stated) | inactive |  |
| CCOCCCN(C)C1CCN(C(=O)c2oc3ccccc3c2NC(=O)COc2cccc(C)c2)CC1 | inactive |  |
| COC(=O)CCC(=O)OC1(C)C(=O)C=C2C=C(C3CC3)N(CCc3c[nH]c4ccccc34)C=C2C1=O (configuration not stated) | inactive |  |
| CCN(CC)S(=O)(=O)c1cccc(C(=O)N[C@H](C(=O)NCc2ccc(Cl)cc2)C(C)C)c1 | inactive |  |
| Cc1csc(NC(=O)C2COc3ccccc3O2)n1 (configuration not stated) | active: 11.2 µM |  |
| Cc1ccccc1C(=O)NNC(=O)C(=O)Nc1cccc(Cl)c1C | inconclusive [inhibitor, single point] |  |
| COc1ccc(Cl)cc1NS(=O)(=O)N1CCOCC1 | inactive |  |
| Cc1cc(Cl)n2ncc(-c3ccccc3)c2n1 | inconclusive [inhibitor, single point] |  |
| CCCc1nnc(NC(=O)c2cc(OC)cc(OC)c2)s1 | inconclusive [inhibitor, single point] |  |
| S=c1[nH]nc(COc2ccc(Cl)cc2)n1-c1ccc(Cl)cc1 | inconclusive [inhibitor, partial curve] |  |
| COc1ccc(OCC(=O)Nc2ccc(N3CCC(C)CC3)cc2)cc1 | inactive |  |

| SMILES | Potency | activity, negative = inhibition |
| --- | --- | --- |
| c1ccc(-c2nnc(-c3ccccn3)nc2NC2CCCCC2)cc1 | inconclusive [inhibitor, single point] |  |
| NC(=O)C1CCN(C(=O)COc2ccc3ccccc3c2Br)CC1 | inconclusive [inhibitor, partial curve] |  |
| Nc1ccc(N=Nc2ccc(N)cc2)cc1 | inconclusive [activator, single point] |  |
| CCN1CNC(=S)N(Cc2ccccc2)C1 | inconclusive [inhibitor, single point] |  |
| Cc1cc(C(=O)NN=C(Cc2ccccc2)Cc2ccccc2)c(C)o1 | inconclusive [inhibitor, single point] |  |
| Cc1ccnc(NC(c2cccnc2)c2ccc3cccnc3c2O)c1 (configuration not stated) | inconclusive [inhibitor, single point] |  |
| COc1ccc(OC)c(-c2csc(NC(=O)Cc3ccc(OC)c(OC)c3)n2)c1 | inconclusive [inhibitor, single point] |  |
| O=C(OCC(=O)c1ccc(Cl)s1)c1cnccn1 | inactive |  |
| Brc1ccc(/C=N/Nc2nc3ccccc3o2)cc1 | inconclusive [inhibitor, single point] |  |
| Cc1nnc(NC(=O)COc2ccccc2)s1 | inconclusive [inhibitor, single point] |  |
| CCC(C)[C@H]1CNC(=S)N1CCc1cc(C(F)(F)F)cc(C(F)(F)F)c1 (some centres not stated) | active: 3.98 µM |  |
| O=c1c2c(nc3n1CCCCC3)sc1c(O)c(Br)ccc12 | active: 4.47 µM |  |
| COc1ccc(/C=N\NC(=O)COc2ccccc2Cl)cc1Cn1nc(C)cc1C | inconclusive [inhibitor, single point] |  |
| COc1cccc(N2CCN(c3ncnc4c3[nH]c3ccc(F)cc34)CC2C)c1 (configuration not stated) | active: 7.08 µM |  |
| CCN(CC(=O)NC(=O)NCc1ccco1)Cc1nc2ccccc2c(=O)[nH]1 | active: 1.12 µM |  |
| CC1CN(c2ccc(NC(=S)Nc3ccc(N4CC(C)OC(C)C4)cc3)cc2)CC(C)O1 (configuration not stated) | active: 8.91 µM |  |
| CC(=S)/C=C1\Sc2ccccc2N1C | active: 10 µM |  |
| Nc1c(-c2ccccc2)cnc2cc(-c3ccccc3)nn12 | inconclusive [inhibitor, full curve] |  |
| CCc1nnc(N/N=C/c2cc(C)c(C)cc2C)n1N | inconclusive [inhibitor, single point] |  |
| CN(C)CCCNS(=O)(=O)c1ccc(N2CCN(Cc3ccc4c(c3)OCO4)CC2)c([N+](=O)[O-])c1 | inactive |  |
| CCN1CCCC1CNC(=O)c1ccc2c(c1)NC(=O)/C(=C\c1ccc(OC)c(OC)c1)S2 (configuration not stated) | inconclusive [inhibitor, single point] |  |
| CC1(c2nnc(-c3ccncc3)o2)CC(c2ccc([N+](=O)[O-])cc2)=NO1 (configuration not stated) | inconclusive [inhibitor, single point] |  |
| CCn1cc(C(=O)O)c(=O)c2cc(F)c(N3CCN(C(=S)NC(=O)c4cccc(C)c4)CC3)cc21 | inconclusive [inhibitor, single point] |  |
| COc1ccccc1NC(=O)Cc1ccsc1 | inactive |  |
| Cc1nn(CCC(=O)NNC(=S)NCC(C)C)c(C)c1Br | active: 1.41 µM |  |
